# Measured values: publication PMC6919601, “Identification of Plasmodium dipeptidyl aminopeptidase allosteric inhibitors by high throughput screening” (PLoS ONE, 2019)
# Hit rate of the full screen: of about 110,000 compounds, about 230 (0.21%) showed an effect of 50% or more. The list shows a part of the results.
# Target: DPAP1 (Plasmodium falciparum, UniProt Q8IIJ9)
# Assay: primary screen, percent inhibition; read by cleavage of a fluorogenic dipeptide substrate; higher = more effect of the substance
# Parameters: species or system P. falciparum D10 trophozoite lysates; single well
# 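Note: 30 min substrate incubation versus DMSO and 10 µM JCP410 controls.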
# Chain of DPAP1 (Q8IIJ9 whole entry, looked up): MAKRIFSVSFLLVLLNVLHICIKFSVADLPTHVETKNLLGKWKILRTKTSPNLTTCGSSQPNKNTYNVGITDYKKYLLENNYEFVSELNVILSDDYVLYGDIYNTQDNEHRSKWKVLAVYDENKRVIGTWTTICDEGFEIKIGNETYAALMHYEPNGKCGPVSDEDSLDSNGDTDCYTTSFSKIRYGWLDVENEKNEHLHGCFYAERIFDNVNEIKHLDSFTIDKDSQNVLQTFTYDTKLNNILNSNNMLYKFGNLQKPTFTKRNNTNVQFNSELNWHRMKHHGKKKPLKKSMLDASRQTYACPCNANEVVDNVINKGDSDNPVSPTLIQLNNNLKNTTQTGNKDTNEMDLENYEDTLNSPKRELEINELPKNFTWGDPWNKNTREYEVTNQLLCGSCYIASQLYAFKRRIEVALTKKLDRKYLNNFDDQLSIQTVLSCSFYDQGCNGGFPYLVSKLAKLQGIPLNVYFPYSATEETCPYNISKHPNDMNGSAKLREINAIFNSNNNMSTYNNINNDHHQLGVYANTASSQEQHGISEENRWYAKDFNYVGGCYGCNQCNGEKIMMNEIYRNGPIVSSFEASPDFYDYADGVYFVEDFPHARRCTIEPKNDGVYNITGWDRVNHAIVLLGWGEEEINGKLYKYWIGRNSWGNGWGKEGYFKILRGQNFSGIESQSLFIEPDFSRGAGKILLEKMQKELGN
row,SMILES,% Inhibition @ 10 uM
1,N=C1/C(=C\c2cccn2-c2ccc(Br)cc2)C(=O)N=C2SC=NN12,0.208%
2,CC(C)CC(Oc1ccc(-c2ccccc2)cc1)C(=O)NCC#N (centres unmarked),-1.41%
3,Cc1ccc(CCNC(=O)CCS(=O)(=O)c2ccc(Br)cc2)cc1,-2.17%
4,CC(=O)C(O)C[C@H]1[C@@](C)(O)CCC2C(C)(C)CCC[C@@]21C (some centres unmarked),1.13%
5,CCN(CC)C(=O)c1ccc(Cl)c([N+](=O)[O-])c1,-2.56%
6,Cc1ccc(-n2nc(C)c3c(C)cc(=O)oc32)cc1C,3.05%
7,c1ccc(CCc2nn3c(-c4ccccc4)nnc3s2)cc1,4.96%
8,CCOc1ccc(N(CC(=O)Nc2ccccc2-c2ccccc2)S(C)(=O)=O)cc1,16.4%
9,O=C(O)c1ccc(NC(=O)c2cc(S(=O)(=O)N3CCCC3)ccc2Cl)cc1,-11%
10,O=C1CC(c2ccccc2)CC(=O)C1=CNCc1ccccc1 (centres unmarked),-2.8%
11,CCCS(=O)(=O)c1ncc(Cl)c(C(=O)N(Cc2ccccc2)c2ccccn2)n1,5.29%
12,COc1cc2c(cc1OC)C(c1ccccc1C)NC(=O)C2 (centres unmarked),0.345%
13,CC(=O)C1=C(C)NC(SCC(N)=O)=C(C#N)C1c1ccc(F)cc1 (centres unmarked),-0.239%
14,CN(c1ccccc1)S(=O)(=O)c1ccc(F)cc1,2.41%
15,CCCOc1ccc(C(=O)O/N=C(\N)c2ccc(C(F)(F)F)cc2)cc1,-0.812%
16,COc1ccc2c(c1)CCc1c(C(=O)NCc3cccnc3)noc1-2,-10.7%
17,COc1ccc(C2C(C(=O)Nc3ccccc3)=C(C)N=c3s/c(=C/c4cn(C)nc4C)c(=O)n32)cc1 (centres unmarked),5.87%
18,O=C(NCc1cccs1)c1ccc(CSc2nc3ccncc3[nH]2)cc1,3.4%
19,CC1Cc2cc(C(=O)C3=C(O)C(=O)N(Cc4cccnc4)C3c3cccs3)ccc2O1 (centres unmarked),-6.3%
20,COc1ccc(/C=C(\C#N)C(=O)NCC2CCCO2)cc1 (centres unmarked),8.01%
21,COc1ccc(C2c3c(oc4ccc(F)cc4c3=O)C(=O)N2c2nc(C)c(C(C)=O)s2)cc1OC (centres unmarked),2.1%
22,Brc1ccccc1NCc1ccncc1,1.57%
23,O=C(CCCn1c2ccccc2c2cnnc(O)c21)NCc1cccnc1,3%
24,COc1ccc(NCc2ccccc2C(F)(F)F)cc1,-0.0908%
25,CC(C)CC(C(=O)NCC#N)c1cccc(-c2ccc(S(=O)(=O)N(C)C3CCN(C)C3)cc2)c1 (centres unmarked),-1.41%
26,Cc1ccc(C23CC4CC(CC(C(=O)Nc5ccccn5)(C4)C2)C3)cc1,4.41%

row,SMILES,% Inhibition @ 10 uM
1,Cc1ccc(NC(=O)c2ccc(C(C)(C)C)cc2)cc1,-1.69%
2,COc1ccc(NC(=O)CN(c2ccccc2F)S(=O)(=O)c2ccccc2)c(OC)c1,-5.27%
3,CCOC(=O)C1=CN(C)C=C(C(=O)OCC)C1c1ccc(C(C)C)cc1,-1.48%
4,CCOc1ccc(/C=C/C(=O)c2ccc(Cl)cc2)cc1,2.62%
5,COc1ccc(CC(=O)Nc2ccc(C(N)=O)cc2)cc1,3.68%
6,CCS(=O)(=O)n1nc(-c2ccccc2)nc1N,2.46%
7,CC1=C(C(=O)Nc2cccnc2)C(c2ccc(Cl)cc2)n2ncnc2N1 (centres unmarked),2.76%
8,COC(=O)C1=C(C)OC(N)=C(C#N)C1c1cc(CN2CCOCC2)c(C)s1 (centres unmarked),-3.87%
9,COc1ccc(C2=NOC(C(=O)N3CCN(C)CC3)C2)cc1 (centres unmarked),3.2%
10,O=c1cc(N2CCOCC2)c2ccccc2s1,0.392%
11,COc1ccccc1NC(=O)c1ccc(C)c(C)c1,2.64%
12,O=C1N=C(N2CCCCC2)S/C1=C/c1ccc(Cl)cc1,3.69%
13,CCN1C(=O)/C(=C/C=C/c2ccco2)C(=O)NC1=S,3.76%
14,CO/C(O)=C1\C(C)=NC2=C(C(=O)CC(C)(C)C2)C1c1cccs1 (centres unmarked),0.345%
15,CNC(=O)C(=O)Nc1cccc2ccccc12,1.57%
16,c1ccc(CN2CCN(Cc3ccccc3)C2c2cccnc2)cc1,-8.18%
17,CC(NC(=O)Cn1ncc2ccsc2c1=O)c1ccccc1 (centres unmarked),-6.52%
18,CC(C)(O)C(=O)/C=C/c1cccc2ccccc12,4.16%
19,CN1CCCN(Cc2ccc(C(F)(F)F)cc2)CC1,-1.92%
20,COc1ccc(CC(=O)N2CC(=O)N(CCc3ccccc3)C(=O)C2)cc1OC,1.2%
21,O=C(NC1CCCC1)C1CCN(C(=O)c2ccc(-c3ccccc3)cc2)CC1,-6.33%
22,COc1ccc(C)cc1N(CC(=O)NCc1ccco1)S(=O)(=O)c1ccc(C)cc1,1.62%
23,COc1ccc(/C=C(\NC(=O)c2ccccc2)C(=O)N2CCc3ccccc32)cc1OC,-2.18%
24,COc1ccc(NC2(c3nnnn3-c3c(C)cccc3C)CCCC2)cc1,-1.45%
25,Cc1ccsc1CN(C(=O)c1oc2c(C)c(C)ccc2c1C)C1CCS(=O)(=O)C1 (centres unmarked),0.569%
26,CCC(C)NC(=O)CSc1nc2ccccc2c2nc(CCn3c(C)nc4ccccc43)nn12 (centres unmarked),5.74%

row,SMILES,% Inhibition @ 10 uM
1,CCN1CCN(C(=O)C2CCCN(S(=O)(=O)N(C)C3CCCCC3)C2)CC1 (centres unmarked),-1.97%
2,COc1ccc(OC)c(C2C3=C(O)CCCC3=NC(C)=C2C(=O)Nc2cccc(F)c2)c1 (centres unmarked),-7.3%
3,O=C(NCCN1CCCC1)c1ccc(-c2ccccc2)s1,-5.81%
4,Cc1ccc2c(C)c(C(=O)N(Cc3ccccc3)C3CCS(=O)(=O)C3)oc2c1 (centres unmarked),2.1%
5,N#Cc1cc(S(=O)(=O)N2CCOCC2)ccc1F,-2.14%
6,CCN1CCC(N[C@H]2CC[C@H](O)CC2)CC1,-5.11%
7,Cc1nc2sccn2c1C(=O)Nc1nc(-c2ccccc2)c(C)s1,-4.48%
8,Nc1nc(NCc2cccc(Br)c2)nn1-c1ccccc1,-5.34%
9,CCC1CCC(NCCc2c[nH]c3ccccc23)CC1 (centres unmarked),3.48%
10,O=S(=O)(c1ccc(F)cc1)N1CCc2ccccc2C1,-1.22%
11,O=C(CNS(=O)(=O)c1cccs1)NC1CCCc2ccccc21 (centres unmarked),-2.12%
12,CC(C)N(Cc1nc(-c2ccccc2)no1)C(=O)Cc1ccccc1,3.06%
13,COc1ccc(-c2noc(CN(C(=O)COc3ccc(Br)cc3C)C(C)C)n2)cc1,-6.56%
14,CC(C)c1ccccc1NC(=O)c1ccco1,33.3%
15,CCOCCCNC(=O)c1oc2ccc3c(c2c1C)C(=O)CC1(CCCCC1)O3,0.623%
16,CC(=O)c1c(C)n(Cc2ccco2)c2ccc(O)cc12,-3.71%
17,CSc1ncc(Cl)c(C(=O)N2CCC(Cc3ccccc3)CC2)n1,-4.64%
18,COc1cc(-c2nnc3n(CCCOC(C)C)c(=O)c4ccccc4n23)cc(OC)c1O,1.68%
19,Cc1ccc(C(=O)NCc2ccc(S(N)(=O)=O)cc2)o1,0.13%
20,O=C(Nc1ccccc1[N+](=O)[O-])c1cccc(S(=O)(=O)N2CCOCC2)c1,4.82%
21,O=C(c1ccccc1[N+](=O)[O-])N1CCCCC1,4.12%
22,Cc1ccc(C(=O)n2c(C)c(C)c(C)c(C#N)c2=O)cc1,-0.725%
23,COC(=O)C1=CN(CC2CCCO2)C=C(C(=O)OC)C1c1cccs1 (centres unmarked),3.43%
24,O=C(COCc1cc(-c2cccs2)on1)NCCc1c[nH]c2ccccc12,-4.96%
25,C=CCC1(C#N)C(SC)=NC2=C(C(=O)CC(C)(C)C2)C1c1ccc(Br)cc1 (centres unmarked),0.847%
26,COc1cc(C(=O)NCc2cn3ccccc3n2)cc(OC)c1OC,1.68%

row,SMILES,% Inhibition @ 10 uM
1,COCc1cc(C)nc(SCC(=O)Nc2nc(-c3ccc(Br)cc3)cs2)c1C#N,-6.51%
2,O=C(C1CCN(c2nc3ccccc3n3cccc23)CC1)N1CCC(Cc2ccccc2)CC1,-7.32%
3,COc1cc(CNC2CCCCC2C)cc(OC)c1 (centres unmarked),1.88%
4,COc1ccc2c(C)c(CC(=O)N3CCCCC3)c(=O)oc2c1OC,-0.808%
5,CCN1CCN(c2ccc(NC(=O)C3CCCCC3C(=O)O)cc2)CC1 (centres unmarked),-1.82%
6,COc1ccc(C(=O)/N=c2\sc(C)c(-c3ccc(C)cc3)n2C)cc1OC,3.58%
7,O=C(c1ccccc1)c1ccc2nc(Cl)c3nnnn3c2c1,3.51%
8,CC(=O)N1CN(CCC(C)C)Cc2c1sc1c2CCCC1,3.24%
9,COc1ccc(N2CCN(Cc3ccsc3)CC2)cc1,-0.969%
10,Cn1c(=O)c2c(Nc3ccc(F)cc3)cc(=O)n(C)c2n(C)c1=O,-0.496%
11,CC1(C)CC(=O)C2=C(C1)N(c1sc3c(c1C#N)CCCC3)C(=O)CC2c1ccccc1 (centres unmarked),5.49%
12,O=C(O)CCNc1nc(O)c2[nH]cnc2n1,-5.47%
13,CCCCOc1ccc(C2c3c(oc4ccccc4c3=O)C(=O)N2c2ccccn2)cc1 (centres unmarked),1.62%
14,Nc1nc(-c2ccc(Cl)c(Cl)c2)cs1,3.42%
15,CC(C)C[C@H](NC(=O)N1CCN(c2ccccc2Cl)CC1)C(=O)NCC#N,-3.48%
16,O=c1ncn(-c2ccccc2C(F)(F)F)c2ncccc12,-7.62%
17,COc1ccc(CC(=O)Nc2c(O)oc3ccccc3c2=O)cc1OC,-0.426%
18,Cc1ccnc(NC(=O)Cn2cnc3c(=O)n(C)c(=O)n(C)c32)c1,1.72%
19,CC(NC(=O)Cc1ccc(F)cc1)C(c1cccs1)N1CCN(C)CC1 (centres unmarked),-1.08%
20,COc1ccc(-n2nc3c(c2NC(=O)c2ccc(OC(C)C)cc2)CS(=O)(=O)C3)cc1,7.66%
21,CCOC(C(=O)c1ccccc1)c1ccccc1 (centres unmarked),8.74%
22,O=C(NCc1cccnc1)C1c2ccccc2C(=O)N1Cc1ccc2c(c1)OCO2 (centres unmarked),-1.29%
23,O=C(Nc1ccccc1F)c1ccccc1Cl,-1.48%
